Assay results reported in PubChem BioAssay AID686930 (Broad Institute, 2013).
The source holds more than one record for some entries. Only these are listed. An entry can have further records. The values listed for one entry are repeats across runs, samples, wells, individuals or studies. Records carry a tag for their origin. Letters count within one entry.

Tested on: V. cholerae WN1103 ΔluxQ, lux luminescence, 6 h
Assay: Confirmatory dose response, V. cholerae WN1103 δluxq inducers of light production, absence of autoinducers (AID 686930)

SMILES: Cc1ccc2cc3c(NC(=O)c4ccco4)nn(C)c3nc2c1
- AC40: 4.13 µM [sample A] and 57 µM [sample B]
